87 compounds from paper PMC4336329 (PLoS ONE, 2015) can be followed below.

Each structure is given as a SMILES string. About 14,000 (4.5%) of roughly 310,000 compounds showed an effect of 50% or more. Effects have a minus sign here. The list shows a part of the results.
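Also: peak tail current of the secondary pulse compared with the same well before compound.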

For the assay, the target named is human ether-à-go-go-related gene (hERG) potassium channel (human, UniProt Q12809). In words: primary screen, population patch clamp on CHO cells stably expressing hERG.
human ether-à-go-go-related gene (hERG) potassium channel, sequence (Q12809 whole entry, looked up): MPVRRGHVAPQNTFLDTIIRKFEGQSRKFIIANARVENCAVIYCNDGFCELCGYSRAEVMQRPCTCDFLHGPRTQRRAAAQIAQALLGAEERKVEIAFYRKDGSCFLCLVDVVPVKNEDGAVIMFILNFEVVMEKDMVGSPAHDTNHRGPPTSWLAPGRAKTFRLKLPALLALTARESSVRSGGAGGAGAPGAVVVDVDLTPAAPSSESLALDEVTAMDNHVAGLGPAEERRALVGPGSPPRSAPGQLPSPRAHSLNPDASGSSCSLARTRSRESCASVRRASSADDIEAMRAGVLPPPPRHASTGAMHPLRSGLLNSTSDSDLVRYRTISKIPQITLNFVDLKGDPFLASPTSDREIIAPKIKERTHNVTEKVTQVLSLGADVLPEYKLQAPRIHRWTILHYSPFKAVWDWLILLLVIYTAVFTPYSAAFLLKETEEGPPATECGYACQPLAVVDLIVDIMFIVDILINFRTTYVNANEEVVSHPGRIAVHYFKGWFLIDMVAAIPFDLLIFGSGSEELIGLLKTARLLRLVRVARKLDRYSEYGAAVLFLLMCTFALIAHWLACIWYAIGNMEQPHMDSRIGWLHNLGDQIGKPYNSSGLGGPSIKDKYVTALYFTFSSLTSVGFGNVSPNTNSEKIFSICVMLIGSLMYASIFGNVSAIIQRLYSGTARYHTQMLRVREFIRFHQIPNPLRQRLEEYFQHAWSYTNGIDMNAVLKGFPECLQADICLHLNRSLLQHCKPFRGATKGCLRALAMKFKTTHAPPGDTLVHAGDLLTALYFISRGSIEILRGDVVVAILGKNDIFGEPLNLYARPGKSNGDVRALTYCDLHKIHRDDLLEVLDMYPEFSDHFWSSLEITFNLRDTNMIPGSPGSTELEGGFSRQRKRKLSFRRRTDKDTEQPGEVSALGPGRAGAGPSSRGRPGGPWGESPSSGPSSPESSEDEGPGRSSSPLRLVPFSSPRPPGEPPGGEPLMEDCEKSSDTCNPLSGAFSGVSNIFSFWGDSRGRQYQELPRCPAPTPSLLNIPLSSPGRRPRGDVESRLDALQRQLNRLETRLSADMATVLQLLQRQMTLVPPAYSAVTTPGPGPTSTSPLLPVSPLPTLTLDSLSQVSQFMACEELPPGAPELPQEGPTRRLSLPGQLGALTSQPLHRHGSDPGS
With `Nc1nc(SCC(=O)Nc2ccc([N+](=O)[O-])cc2)n[nH]1`, the “hERG current change (%, negative = inhibition) at 10uM” value was -6.19%. As for `CCOC(=O)c1nn(-c2ccc(C)cc2)c(=O)cc1OCC(=O)N1CCN(c2ccccc2)CC1`, the “hERG current change (%, negative = inhibition) at 10uM” value was -51.9%. Consider `N#Cc1ccc(CN(c2ccncc2)S(=O)(=O)c2ccccc2)cc1`, for which the “hERG current change (%, negative = inhibition) at 10uM” value is -2.11%. Take `Cc1noc(C)c1C(=O)OCC(=O)Nc1cc(S(=O)(=O)N2CCOCC2)ccc1Cl`: the “hERG current change (%, negative = inhibition) at 10uM” value is -25%. Consider `O=C(O)C1C2C=CC(C2)C1C(=O)Nc1cccc(C(F)(F)F)c1` (stereo not drawn), for which the “hERG current change (%, negative = inhibition) at 10uM” value amounted to 8.95%. For the compound `COc1ccccc1CNC(=O)C1CCCN(S(=O)(=O)c2c(C)[nH]c(=O)[nH]c2=O)C1` (stereo not drawn), the “hERG current change (%, negative = inhibition) at 10uM” value was determined as 2.87%. The same measure for `O=[N+]([O-])c1ccc(N2CCN(Cc3ccncc3)CC2)cc1`: -64.8%. For `CCN(CCCNC(=O)CC1Oc2ccc(C)cc2NC1=O)Cc1ccccc1` (stereo not drawn), the “hERG current change (%, negative = inhibition) at 10uM” value is recorded as -61.5%. `O=C(CSc1ccccc1)Nc1ccc(NC(=O)c2ccco2)cc1`: the “hERG current change (%, negative = inhibition) at 10uM” value is on record as -1.23%.

In the case of `CCOC(=O)c1cc(-c2cccs2)nc2c1c(C)nn2-c1ccccn1`, the “hERG current change (%, negative = inhibition) at 10uM” value is given as 17.2%. The same measure for `CCN1CCN(c2sc(S(C)(=O)=O)nc2S(=O)(=O)c2ccc(C)cc2)CC1`: -10.9%. The same measure for `COc1ccccc1-n1cc(C(=O)NCC(=O)N2CCN(c3ccccn3)CC2)c2ccccc2c1=O`: -37.8%.

With `Cc1cc(C)n(-c2cccc(CN3CCC(CO)(Cc4ccccc4)CC3)c2)n1`, the “hERG current change (%, negative = inhibition) at 10uM” value was -58.1%. Regarding `CNC(=S)N1CCN(c2ccc([N+](=O)[O-])cc2)CC1`, the “hERG current change (%, negative = inhibition) at 10uM” value is recorded as -65.1%.

On to `Cc1cc(-c2nnc(SCc3cccnc3)o2)no1`, for which the “hERG current change (%, negative = inhibition) at 10uM” value was -2.49%. The same measure for `CCOC(=O)Cc1cnc(N)s1`: 4.64%; for `O=C(c1ccncc1)N1N=C(C2CCCCC2)CC1(O)C(F)(F)F` (stereo not drawn): 11.6%; for `O=C(CNC(=O)c1ccco1)N=Nc1c(O)[nH]c2ccc([N+](=O)[O-])cc12`: 14.5%. As for `COc1ccc(/C=C/C(=O)O)cc1S(=O)(=O)NCc1ccco1`, the figure is 14%; as for `CC(=O)Nc1ccc(S(=O)(=O)NCCC(=O)NNC(=O)c2ccncc2)cc1`, 17.8%; as for `Cc1ccc(S(=O)(=O)NC(C)(C)CSc2ncccn2)cc1`, -4.42%.

For the compound `COc1cc(C(=O)NCC(=O)N/N=C/c2ccccn2)cc(OC)c1OC`, the “hERG current change (%, negative = inhibition) at 10uM” value is 17.4%.

Consider `CC(C)CN(Cc1c(O)ccc2c(=O)c(-c3ccccc3)coc12)CC(C)C.Cl`, for which the “hERG current change (%, negative = inhibition) at 10uM” value is listed as 17%. Consider `CCOC(=O)c1c(NC(=O)C2C3CCC(O3)C2C(=O)O)sc(C)c1-c1ccc(C)cc1` (stereo not drawn), for which the “hERG current change (%, negative = inhibition) at 10uM” value was 2.26%. `O=C(c1ccc(NC2=NC3CS(=O)(=O)CC3S2)cc1)N1CCN(c2ccc([N+](=O)[O-])cc2)CC1` (stereo not drawn): the “hERG current change (%, negative = inhibition) at 10uM” value is given as -4.75%. Turning to `CCOC(=O)c1cc(S(=O)(=O)NCC2CCN(Cc3cccc(C)c3)CC2)cn1C`, the “hERG current change (%, negative = inhibition) at 10uM” value is listed as -7.77%. Take `O=C(Nc1ccc(N2CCOCC2)cc1)c1ccc(COc2ccccc2)cc1`: the “hERG current change (%, negative = inhibition) at 10uM” value came to 17.3%. As for `O=C(O)C1=C(Nc2ccccc2)OCC1=O`, the figure is 14%. As for `CCOc1cc(C(=O)NC(=S)Nc2nc(C)cc(C)n2)cc(OCC)c1OCC`, the figure is 0.578%; as for `CC(=O)C1C(c2ccc(F)cc2)NC(=O)NC1(O)C(F)(F)F` (stereo not drawn), -4.43%; as for `CCOc1ccc(S(=O)(=O)Nc2ccc(C(=O)N3CCCC3)cc2)cc1C(N)=O`, 24.3%. As for `CSc1ccc(-c2sc(Nc3cccc4ccccc34)n[n+]2-c2ccccc2)cc1.[Cl-]`, the figure is 10.2%; as for `COc1ccc(C(=O)Cn2nnc(-c3ccccc3F)n2)cc1`, -14.6%; as for `CC1CCCCN1C(=O)C(=O)c1cn(CC(=O)N2CCCCCC2)c2ccccc12` (stereo not drawn), 13%. As to `CCOc1ccc(Br)cc1S(=O)(=O)Nc1ccc(N2CCOCC2)cc1`, the “hERG current change (%, negative = inhibition) at 10uM” value is -8.78%. The same measure for `CSc1sc(C)cc1/C=N/O`: 6.46%; for `CCN1C(=O)/C(=C\c2cccs2)C(C(=O)OC)=C1C`: 5.41%. `Cc1ccc(N2C(=O)N(CC(=O)NC(N)=O)C(=O)C2C)cc1` (stereo not drawn): the “hERG current change (%, negative = inhibition) at 10uM” value is on record as 27%. The same measure for `COC(=O)C1=C(C(=O)OC)SC(=C2C(=S)C(C)(C)N(C(=O)CC(C)C)c3ccccc32)S1`: -7.16%. `O=[N+]([O-])c1ccc(NCCCNS(=O)(=O)c2ccccc2)c(Cl)c1`: the “hERG current change (%, negative = inhibition) at 10uM” value is -14.3%. Turning to `Nc1nc(CSCc2ccccc2)nc(N2CCOCC2)n1`, the “hERG current change (%, negative = inhibition) at 10uM” value is -10.2%. The same measure for `O=C(Nc1ccccc1Cl)C1CC(=O)n2c(nc3ccccc32)N1` (stereo not drawn): 24.7%; for `O=C(c1cc(C(=O)NCc2ccc(Cl)cc2)c(=O)n(Cc2ccc(Cl)cc2)c1)c1cc(F)ccc1O`: 9.94%. Take `COc1ccc(C2C3=C(CCCC3=O)Nc3n[nH]c(C)c32)cc1OC` (stereo not drawn): the “hERG current change (%, negative = inhibition) at 10uM” value came out at 6.62%. `O=C(NCc1cccs1)C1(S(=O)(=O)c2ccccc2)CC=CC1`: the “hERG current change (%, negative = inhibition) at 10uM” value was -3.22%. As for `Cc1cccc(OCc2ccc(C(=O)Nc3ccc(F)cc3)cc2)c1`, the figure is 11.6%.

As for `CCOCCCNC(=S)NCCCNc1nc2cc3c(cc2cc1C#N)OCO3`, the “hERG current change (%, negative = inhibition) at 10uM” value is reported as -1.68%. The same measure for `COCCNC(=O)c1cn(CCOC)c(=O)c2c1c1ccccc1n2C`: 11.7%; for `C=CCOc1ccc(CN(C)C(=O)c2ccc(CNS(=O)(=O)c3ccc(C)c(C)c3)cc2)cc1`: -2.09%. Regarding `Cc1c(C(=O)OCC(=O)N2C(C)CCCC2C)oc2ccccc12` (stereo not drawn), the “hERG current change (%, negative = inhibition) at 10uM” value is 19.6%.

As for `Cc1ccc(-c2csc3ncnc(Nc4ccc(N5CCOCC5)cc4)c23)cc1.Cl`, the “hERG current change (%, negative = inhibition) at 10uM” value is on record as -0.406%. The same measure for `Cc1ccc(Cn2c(=S)[nH]c3ccc(N4CCOCC4)cc3c2=O)o1`: -41.5%; for `O=C(CCn1c(=O)oc2ccccc21)NCc1ccc2c(c1)OCO2`: -11%; for `CCOc1cc(C(=O)O)cc(Cl)c1OC`: 16.3%. The same measure for `CC(=O)Nc1ccc(C(=O)N2CCN(C(=O)c3ccco3)CC2)cc1`: -1.06%; for `O=c1c2ccc(Cl)cc2[nH]c(=S)n1CCC1=CCCCC1`: 14.6%; for `Cc1ccc(S(=O)(=O)N2CCCC(C(=O)NCc3ccccn3)C2)cc1` (stereo not drawn): -4.25%.

For the compound `Cc1ccc(-c2nc(SCC(=O)NCC3CCCO3)c(-c3ccc(C)cc3)[nH]2)cc1` (stereo not drawn), the “hERG current change (%, negative = inhibition) at 10uM” value was determined as 29.2%. The same measure for `O=C(C1=C(O)C(=O)N(CCN2CCOCC2)C1c1cccnc1)c1cc2ccccc2o1` (stereo not drawn): -5.17%; for `CC1(C)CC(NC(=O)COc2ccccc2Cl)CC(C)(C)N1`: 10.8%. As for `CC(=O)c1ccc(Cc2ccccc2)cc1`, the figure is -3.54%. The same measure for `COc1ccc(OC)c(NC(=O)CC2Oc3ccccc3NC2=O)c1` (stereo not drawn): 19.4%; for `Cc1nnsc1C(=O)NNC(=O)c1ccc(C(F)(F)F)cc1`: 19.1%. Turning to `COC(=O)c1c(C)[nH]c(C(=O)C(C)OC(=O)c2ccco2)c1C` (stereo not drawn), the “hERG current change (%, negative = inhibition) at 10uM” value came to 11.7%. As to `Cc1cccc(-c2nc(C)cc(=O)[nH]2)c1`, the “hERG current change (%, negative = inhibition) at 10uM” value is reported as 14.5%.

For `O=C1c2ccccc2NC(c2c(Cl)cccc2Cl)N1Cc1ccccc1` (stereo not drawn), the “hERG current change (%, negative = inhibition) at 10uM” value was 7.98%. Regarding `CC(=O)Oc1ccc2oc(=O)c3c(c2c1)CCCN3C(=O)CN1CCN(c2ncccn2)CC1`, the “hERG current change (%, negative = inhibition) at 10uM” value was -7.91%.

As to `CCCCN1C(=O)c2ccc(C(=O)OCC(=O)N3CCN(c4ccccc4)CC3)cc2C1=O`, the “hERG current change (%, negative = inhibition) at 10uM” value is listed as -2.39%. Consider `CN(C)/C=C/C(=O)c1ccc(S(=O)c2ccccc2)cc1` (stereo not drawn), for which the “hERG current change (%, negative = inhibition) at 10uM” value turned out to be 33.4%. As for `COc1cc(OC)c(/C=C2\SC(=O)N(CC(=O)Nc3ccccc3F)C2=O)c(OC)c1`, the “hERG current change (%, negative = inhibition) at 10uM” value was determined as 13.8%. Consider `COC(=O)c1nnn(-c2nonc2N)c1CSc1ccccn1`, for which the “hERG current change (%, negative = inhibition) at 10uM” value is on record as -3.45%. For the compound `Cn1c(=O)c(C(=O)COC(=O)c2cc(C(F)(F)F)nc3c(C(F)(F)F)cccc23)c(N)n(CC2CC2)c1=O`, the “hERG current change (%, negative = inhibition) at 10uM” value is listed as -13.2%.

Consider `CCOC(=O)c1nnn(-c2nc(OC)nc(N3CCCC3)n2)c1-c1ccccc1`, for which the “hERG current change (%, negative = inhibition) at 10uM” value came to 12.3%. Turning to `CC(C)n1cnc2c(N(C)c3ccccc3)nc(N(CCN(C)C)Cc3ccccc3)nc21`, the “hERG current change (%, negative = inhibition) at 10uM” value is recorded as -73.1%. As for `CC(=O)c1cccc(S(=O)(=O)Nc2cccc(S(=O)(=O)NC3=NCCC3)c2)c1`, the figure is 11.2%; as for `CC1Cc2ccccc2N1C(=O)COc1cccc(-n2cnnn2)c1` (stereo not drawn), -27%. For the compound `COc1cccc(CNC(=O)CCC2CCCN(C(=O)c3csc(C(C)C)n3)C2)c1` (stereo not drawn), the “hERG current change (%, negative = inhibition) at 10uM” value was -2.21%. For the compound `O=C(Nc1nnc(COc2ccc(Cl)cc2)s1)C1CCCO1` (stereo not drawn), the “hERG current change (%, negative = inhibition) at 10uM” value is on record as -11%. The same measure for `Cc1ccc(N(C(=O)c2csnn2)C(C(=O)NC2CCCC2)c2ccccn2)cc1` (stereo not drawn): 9.02%. The same measure for `Cc1cccc(N)c1SC1CCCCC1O` (stereo not drawn): -5.84%; for `Cc1nn(C)c(C)c1S(=O)(=O)N1CCCC(C(=O)NC2CCCCCC2)C1` (stereo not drawn): 5.43%. The same measure for `O=C(/C=C/c1ccc2c(c1)OCO2)N1CCOCC1`: -6.03%. Consider `CCC(=O)Nc1cccc(-c2nc3ccccc3o2)c1`, for which the “hERG current change (%, negative = inhibition) at 10uM” value is listed as -4%. Consider `COc1ccc(CC(=O)Nc2ccc(S(=O)(=O)Nc3cc(C)on3)cc2)cc1OC`, for which the “hERG current change (%, negative = inhibition) at 10uM” value amounted to 21.6%. With `CC1CC(C)CN(CCCn2c(=S)[nH]c3ccccc3c2=O)C1` (stereo not drawn), the “hERG current change (%, negative = inhibition) at 10uM” value is -53%. The same measure for `CC[C@H](C)[C@@H](CN[C@H](CCCCNC)CNC)NCC1CCCC1`: 29.8%. `COc1ccc(S(=O)(=O)Nc2ccc(N3CCOCC3)cc2)cc1`: the “hERG current change (%, negative = inhibition) at 10uM” value was determined as 7.57%.
